These results are taken from publication PMC11269665.

Protein sequences, listed by entry. Tags and fused reporters are not part of them.
UniProt Q14532: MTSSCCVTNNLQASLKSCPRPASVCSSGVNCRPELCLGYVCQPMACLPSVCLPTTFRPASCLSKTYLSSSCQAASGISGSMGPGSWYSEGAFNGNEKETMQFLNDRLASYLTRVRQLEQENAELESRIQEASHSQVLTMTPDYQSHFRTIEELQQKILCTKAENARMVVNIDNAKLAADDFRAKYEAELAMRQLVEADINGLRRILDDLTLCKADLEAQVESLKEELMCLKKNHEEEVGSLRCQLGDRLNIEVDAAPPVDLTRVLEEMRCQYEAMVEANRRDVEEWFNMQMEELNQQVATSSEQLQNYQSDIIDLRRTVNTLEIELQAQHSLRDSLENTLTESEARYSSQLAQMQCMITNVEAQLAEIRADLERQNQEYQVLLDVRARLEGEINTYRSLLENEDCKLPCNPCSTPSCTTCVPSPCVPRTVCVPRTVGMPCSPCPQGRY

For this experiment, the target named is GST-KRT32 (human) (UniProt Q14532). The experiment can be described thus: pull-down; GST-KRT32 incubated 12 h with excess His-tagged NEMO, IKKα, IKKβ or IκBα, glutathione-Sepharose beads, Western blot with anti-GST and anti-His; both purified.

Results are given in words; binding and its absence hold for the method and conditions named. Where a sequence is shown, tags or fusion partners need not be part of it.

B1: His-IKKβ (protein, UniProt O14920 1-756)
chain: MSWSPSLTTQTCGAWEMKERLGTGGFGNVIRWHNQETGEQIAIKQCRQELSPRNRERWCLEIQIMRRLTHPNVVAARDVPEGMQNLAPNDLPLLAMEYCQGGDLRKYLNQFENCCGLREGAILTLLSDIASALRYLHENRIIHRDLKPENIVLQQGEQRLIHKIIDLGYAKELDQGSLCTSFVGTLQYLAPELLEQQKYTVTVDYWSFGTLAFECITGFRPFLPNWQPVQWHSKVRQKSEVDIVVSEDLNGTVKFSSSLPYPNNLNSVLAERLEKWLQLMLMWHPRQRGTDPTYGPNGCFKALDDILNLKLVHILNMVTGTIHTYPVTEDESLQSLKARIQQDTGIPEEDQELLQEAGLALIPDKPATQCISDGKLNEGHTLDMDLVFLFDNSKITYETQISPRPQPESVSCILQEPKRNLAFFQLRKVWGQVWHSIQTLKEDCNRLQQGQRAAMMNLLRNNSCLSKMKNSMASMSQQLKAKLDFFKTSIQIDLEKYSEQTEFGITSDKLLLAWREMEQAVELCGRENEVKLLVERMMALQTDIVDLQRSPMGRKQGGTLDDLEEQARELYRRLREKPRDQRTEGDSQEMVRLLLQAIQSFEKKVRVIYTQLSKTVVCKQKALELLPKVEEVVSLMNEDEKTVVRLQEKRQKELWNLLKIACSKVRGPVSGSPDSMNASRLSQPGQLMSQPSTASNSLPEPAKKSEELVAEAHNLCTLLENAIQDTVREQDQSFTALDWSWLQTEEEEHSCLEQAS
In the case of B1, the binding entry was “no binding”.
